No constants are given. Whether binding was seen depends on the method and setting. In cells and extracts the contact can be indirect. Some entries that bind do so weakly or less than the wild type. For some assays here: Tags and fused reporters may be left off the sequences shown. Values belong to the binder of their own block, whether it stands above or below them.
Columns and labels:
Experiment in all cases: pull-down; co-purification from BL21(DE3) cells by the StrepII tag (on HypD, HypC or HybG) under anoxic conditions; 5 ug of isolated protein on SDS-PAGE, immunoblot with anti-HypD or anti-HypE antiserum (1:1000)
[1] = target: T1, HybG with a C-terminal StrepII-tag (E. coli) (UniProt P0AAM7)
T1 sequence: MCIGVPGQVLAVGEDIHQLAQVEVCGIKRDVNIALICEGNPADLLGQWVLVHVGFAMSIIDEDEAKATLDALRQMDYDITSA

[2] = target: T2, native HypD-HybG-Strep complex (E. coli) (UniProt P0AAM7+P24192)
T2 sequence 1: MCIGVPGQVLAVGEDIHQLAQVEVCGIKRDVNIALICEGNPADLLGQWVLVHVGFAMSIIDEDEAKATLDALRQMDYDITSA
T2 sequence 2: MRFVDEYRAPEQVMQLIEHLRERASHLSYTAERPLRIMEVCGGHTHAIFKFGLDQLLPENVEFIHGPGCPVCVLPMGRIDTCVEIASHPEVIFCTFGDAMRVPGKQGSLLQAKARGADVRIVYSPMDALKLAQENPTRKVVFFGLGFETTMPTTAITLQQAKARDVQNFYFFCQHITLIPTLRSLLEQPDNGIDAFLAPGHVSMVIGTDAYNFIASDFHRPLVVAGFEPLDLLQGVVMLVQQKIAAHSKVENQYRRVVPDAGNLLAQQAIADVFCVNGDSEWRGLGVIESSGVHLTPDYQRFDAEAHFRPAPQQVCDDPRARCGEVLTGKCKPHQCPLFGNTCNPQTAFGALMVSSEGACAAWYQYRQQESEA

[3] = target: T3, HypD_(D98A)-HybG-Strep complex (E. coli) (UniProt P0AAM7+P24192)
T3 sequence 1: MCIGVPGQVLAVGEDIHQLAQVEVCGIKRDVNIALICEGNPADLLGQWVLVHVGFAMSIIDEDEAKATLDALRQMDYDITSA
T3 sequence 2: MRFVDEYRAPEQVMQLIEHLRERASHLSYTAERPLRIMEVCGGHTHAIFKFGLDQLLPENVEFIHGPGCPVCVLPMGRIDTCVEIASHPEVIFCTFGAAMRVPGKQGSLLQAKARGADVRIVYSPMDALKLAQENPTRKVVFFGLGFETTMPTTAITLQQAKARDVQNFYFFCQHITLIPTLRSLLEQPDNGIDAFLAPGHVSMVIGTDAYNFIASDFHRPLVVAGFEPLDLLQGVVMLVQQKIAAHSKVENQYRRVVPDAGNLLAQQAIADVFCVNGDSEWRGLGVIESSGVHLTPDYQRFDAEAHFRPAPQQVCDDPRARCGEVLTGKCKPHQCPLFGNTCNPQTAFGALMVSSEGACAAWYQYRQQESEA

[4] = target: T4, HypD_(D98A)-HypC-Strep complex (E. coli) (UniProt P0AAM3+P24192)
T4 sequence 1: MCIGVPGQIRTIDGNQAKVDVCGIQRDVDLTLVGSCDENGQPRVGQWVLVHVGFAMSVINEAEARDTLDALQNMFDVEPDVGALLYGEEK
T4 sequence 2: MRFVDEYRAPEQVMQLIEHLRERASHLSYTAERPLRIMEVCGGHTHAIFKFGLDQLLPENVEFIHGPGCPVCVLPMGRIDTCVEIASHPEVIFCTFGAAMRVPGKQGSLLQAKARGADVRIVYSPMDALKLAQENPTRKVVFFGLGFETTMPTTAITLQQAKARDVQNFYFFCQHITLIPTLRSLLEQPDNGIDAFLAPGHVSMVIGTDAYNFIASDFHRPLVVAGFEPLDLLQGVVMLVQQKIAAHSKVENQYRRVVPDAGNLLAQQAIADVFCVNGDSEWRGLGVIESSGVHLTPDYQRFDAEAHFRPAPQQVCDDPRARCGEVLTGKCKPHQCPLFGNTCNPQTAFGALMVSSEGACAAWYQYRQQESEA

[5] = target: T5, N-terminally Strep-tagged HypD (E. coli) (UniProt P24192)
T5 sequence: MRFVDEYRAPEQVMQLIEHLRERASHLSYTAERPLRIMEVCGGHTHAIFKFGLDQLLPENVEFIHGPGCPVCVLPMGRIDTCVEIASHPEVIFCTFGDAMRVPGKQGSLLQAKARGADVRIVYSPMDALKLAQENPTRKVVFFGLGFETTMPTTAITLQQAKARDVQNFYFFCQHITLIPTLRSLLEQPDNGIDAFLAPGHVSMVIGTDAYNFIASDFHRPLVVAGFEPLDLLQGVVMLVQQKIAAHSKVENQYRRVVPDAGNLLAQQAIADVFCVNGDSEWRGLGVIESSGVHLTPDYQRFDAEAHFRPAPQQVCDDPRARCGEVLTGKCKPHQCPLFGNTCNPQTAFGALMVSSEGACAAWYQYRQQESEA

[6] = target: T6, Strep-tagged HypD_(D98A) (E. coli) (UniProt P24192)
T6 sequence: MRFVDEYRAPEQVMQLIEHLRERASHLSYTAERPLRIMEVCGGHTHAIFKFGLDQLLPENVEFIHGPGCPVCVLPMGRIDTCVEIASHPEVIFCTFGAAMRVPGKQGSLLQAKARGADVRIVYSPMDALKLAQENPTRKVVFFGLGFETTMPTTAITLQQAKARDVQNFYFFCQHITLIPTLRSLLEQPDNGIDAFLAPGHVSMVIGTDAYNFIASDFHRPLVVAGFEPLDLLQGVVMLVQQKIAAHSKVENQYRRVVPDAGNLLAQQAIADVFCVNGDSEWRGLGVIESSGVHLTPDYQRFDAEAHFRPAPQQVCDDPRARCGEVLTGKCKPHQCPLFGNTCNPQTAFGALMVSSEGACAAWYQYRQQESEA

[7] = target: T7, native HypD-HypC-Strep complex (E. coli) (UniProt P0AAM3+P24192)
T7 sequence 1: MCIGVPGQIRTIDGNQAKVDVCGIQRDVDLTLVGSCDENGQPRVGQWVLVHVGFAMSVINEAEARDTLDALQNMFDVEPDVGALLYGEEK
T7 sequence 2: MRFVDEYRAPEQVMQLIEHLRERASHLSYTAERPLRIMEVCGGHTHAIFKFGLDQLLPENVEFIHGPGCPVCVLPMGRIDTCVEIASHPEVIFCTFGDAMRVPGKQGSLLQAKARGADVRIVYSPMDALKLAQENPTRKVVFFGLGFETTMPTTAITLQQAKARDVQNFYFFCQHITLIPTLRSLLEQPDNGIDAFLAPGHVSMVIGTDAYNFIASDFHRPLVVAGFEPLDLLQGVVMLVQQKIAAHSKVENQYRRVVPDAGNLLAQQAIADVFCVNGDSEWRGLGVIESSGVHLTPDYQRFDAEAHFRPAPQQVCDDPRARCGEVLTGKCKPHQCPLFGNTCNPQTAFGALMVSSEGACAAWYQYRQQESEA

binding [1]: binds
B1: HypD (native, untagged) (natural protein, E. coli, UniProt P24192 1-373, looked up)
chain: MRFVDEYRAPEQVMQLIEHLRERASHLSYTAERPLRIMEVCGGHTHAIFKFGLDQLLPENVEFIHGPGCPVCVLPMGRIDTCVEIASHPEVIFCTFGDAMRVPGKQGSLLQAKARGADVRIVYSPMDALKLAQENPTRKVVFFGLGFETTMPTTAITLQQAKARDVQNFYFFCQHITLIPTLRSLLEQPDNGIDAFLAPGHVSMVIGTDAYNFIASDFHRPLVVAGFEPLDLLQGVVMLVQQKIAAHSKVENQYRRVVPDAGNLLAQQAIADVFCVNGDSEWRGLGVIESSGVHLTPDYQRFDAEAHFRPAPQQVCDDPRARCGEVLTGKCKPHQCPLFGNTCNPQTAFGALMVSSEGACAAWYQYRQQESEA
notes: Carries a [4Fe-4S] cluster; also called native HypD; WT HypD; source: E. coli BL21(DE3), co-expressed with HypC-Strep (phypDC) or with HypE, HypF and HybG-Strep (phypDEF-hybG); co-purified anaerobically

binding [1]: binds
B2: HypD_(D98A) (untagged) (natural protein, E. coli, UniProt P24192 1-373, looked up)
chain: MRFVDEYRAPEQVMQLIEHLRERASHLSYTAERPLRIMEVCGGHTHAIFKFGLDQLLPENVEFIHGPGCPVCVLPMGRIDTCVEIASHPEVIFCTFGAAMRVPGKQGSLLQAKARGADVRIVYSPMDALKLAQENPTRKVVFFGLGFETTMPTTAITLQQAKARDVQNFYFFCQHITLIPTLRSLLEQPDNGIDAFLAPGHVSMVIGTDAYNFIASDFHRPLVVAGFEPLDLLQGVVMLVQQKIAAHSKVENQYRRVVPDAGNLLAQQAIADVFCVNGDSEWRGLGVIESSGVHLTPDYQRFDAEAHFRPAPQQVCDDPRARCGEVLTGKCKPHQCPLFGNTCNPQTAFGALMVSSEGACAAWYQYRQQESEA
notes: HypD of E. coli with the D98A exchange, without a tag; source: co-purified anaerobically

binding [2]: binds | binding [3]: binds weakly
B3: HypE (co-expressed from phypDEF-hybG) (protein, UniProt P24193 1-336)
chain: MNNIQLAHGSGGQAMQQLINSLFMEAFANPWLAEQEDQARLDLAQLVAEGDRLAFSTDSYVIDPLFFPGGNIGKLAICGTANDVAVSGAIPRYLSCGFILEEGLPMETLKAVVTSMAETARAAGIAIVTGDTKVVQRGAVDKLFINTAGMGAIPANIHWGAQTLTAGDVLLVSGTLGDHGATILNLREQLGLDGELVSDCAVLTPLIQTLRDIPGVKALRDATRGGVNAVVHEFAAACGCGIELSEAALPVKPAVRGVCELLGLDALNFANEGKLVIAVERNAAEQVLAALHSHPLGKDAALIGEVVERKGVRLAGLYGVKRTLDLPHAEPLPRIC

binding [4]: binds weakly | binding [5]: no binding | binding [6]: no binding | binding [7]: binds
B4: HypE (in cells carrying phypD or phypDC) (protein, UniProt P24193 1-336)
chain: MNNIQLAHGSGGQAMQQLINSLFMEAFANPWLAEQEDQARLDLAQLVAEGDRLAFSTDSYVIDPLFFPGGNIGKLAICGTANDVAVSGAIPRYLSCGFILEEGLPMETLKAVVTSMAETARAAGIAIVTGDTKVVQRGAVDKLFINTAGMGAIPANIHWGAQTLTAGDVLLVSGTLGDHGATILNLREQLGLDGELVSDCAVLTPLIQTLRDIPGVKALRDATRGGVNAVVHEFAAACGCGIELSEAALPVKPAVRGVCELLGLDALNFANEGKLVIAVERNAAEQVLAALHSHPLGKDAALIGEVVERKGVRLAGLYGVKRTLDLPHAEPLPRIC

From paper PMC12130793, “A conserved aspartate residue in [4Fe-4S]-containing HypD is required for [NiFe]-cofactor biosynthesis and for efficient interaction of the HypCD scaffold complex with HypE” (Metallomics: Integrated Biometal Science, 2025)
